According to ChEMBL document CHEMBL5308541, “MAIP: An Open-Source Tool to Enrich High-Throughput Screening Output and Identify Novel, Druglike Molecules with Antimalarial Activity” (ACS Med Chem Lett, 2023):
Hit rate of the full screen: of about 150,000 compounds, about 540 (0.36%) showed an effect of 50% or more. Some of the results follow.

Test system: Plasmodium falciparum
Experiment: Primary screen in NF54 nanoGlo assay, in single point, at 2uM, 72h; a lower Z score goes with more inhibition
Type: functional, Erythrocyte
Settings: timepoint 72 hour

Compound	% Inhibition [%]	Z score
COc1cccc(Nc2nc(Nc3ccc(C)cc3)nc(C)c2N)c1	9	-1.58
CC(=O)C1=C(O)C(=O)N(c2ccccn2)[C@@H]1c1ccccc1	-7	1.24
CC(C)N1CCN(CCCN2CCC[C@H](C(F)(F)F)C2)CC1	-7	1.56
CN1CCN(c2ccc(CNc3ccn(-c4ccccc4)n3)cc2)CC1	-1	0.21
OC[C@H]1CCCCN1CCCNc1ccc(-c2ccccc2)nn1	0	0.02
CN1CCC(Oc2ccc(CNCc3cccc4[nH]ccc34)cc2)CC1	19	-3.22
CCOc1ccccc1C1CC(c2ccc(Cl)cc2Cl)Nc2nc3ccccc3n21 (configuration not stated)	-3	0.48
NC(=O)c1ccc(N2CCCCC2)c(NC(=O)Nc2cc(-c3cc(F)cc(F)c3)[nH]n2)c1	6	-0.86
Cc1nccn1-c1ccc([C@H](C)Nc2nc(-c3ccncc3)nc3c2CCC3)cc1	-7	1.15
Fc1cccc(F)c1N1CC[C@H](NC2CCN(CC(F)F)CC2)C1	-7	1.32
Cc1nc(CN)cc(NCCC2CCN(C(C)C)CC2)n1	-2	0.34
O=C(C1CCN(C2CCOCC2)CC1)N1CC2CCC(C1)NC2 (configuration not stated)	0	0.05
Cc1cc2cc(C(=O)N3Cc4cnc(-c5ccccc5)nc4C3)ccc2o1	5	-1.11
Cc1cc(-n2cccn2)ccc1-c1c(-c2ccccc2)ncn1CCCCN	-2	0.42
C[C@@H](C1CC1)n1cc(NC(=O)NC2CCN(C3CCN(C)CC3)CC2)cn1	-9	1.54
COC[C@H]1CCCN(C(=O)C(C)(C)c2csc(-c3cccs3)n2)C1	5	-1.03
CN1CCCN(CC2CC(CO)CN(C(=O)c3ccc4[nH]nnc4c3)C2)CC1 (configuration not stated)	-3	0.44
Cc1cc2cc[nH]c2cc1NC(=O)c1cc(N2CC(C)OC(C)C2)ccn1 (configuration not stated)	-4	0.87
CCCS(=O)(=O)Nc1cccc(NCc2cccc3[nH]ccc23)c1	-2	0.33
CN(C)C1CCCN(c2cc(NC3CCCOC3)ncn2)C1 (configuration not stated)	-14	2.06
N#Cc1c(-c2cccc3cnccc23)cc(-c2ccc[nH]2)nc1N	-15	2.3

Compound	% Inhibition [%]	Z score
N#Cc1ccnc(-c2ccc(C(=O)N(CCO)C3CCCCC3)cc2)c1	-8	1.43
c1ccc(-c2cc(-c3c(N4CCCC4)nc4ccccc4c3-c3ccccc3)nc3ccccc23)cc1	-15	2.34
CCN1CCN(C2CCN(C(=O)C(Cc3c[nH]c4cc(F)ccc34)NC(C)=O)C2)CC1 (configuration not stated)	1	-0.23
CN1CCN(c2ccc(-c3cccc(C(=O)N4CC[C@H](N)C4)c3)nn2)CC1	-5	0.84
Fc1cc(-c2ccc(OCCN3CCCC3)cc2)c2ncccc2c1	1	-0.2
COCCN(Cc1ccccc1Cl)C(=O)CCN1CCCCCC1=O	-17	2.92
Cc1ccc(C2CC2C(=O)Nc2ncn(CC(=O)O)n2)cc1C (configuration not stated)	6	-1.29
CC(C)n1ncc2cc(CNc3ccc4[nH]ncc4c3)cnc21	-9	1.52
O=C(NCc1ccncc1O[C@H]1CCNC1)c1c[nH]c2ncccc12	-5	0.79
Cc1nccn1-c1ccc([C@H](C)Nc2nc(N)c3cnn(C)c3n2)cc1	-3	0.53
COCCN(Cc1nccs1)C(=O)C[C@H]1C(=O)N(C)C(=O)N1C	-3	0.54
CC(C)(NC(=O)c1ccc(-n2cnnc2)nc1)c1nnc(N)s1	-6	1.23
Clc1ccc(CNc2cccc(Cn3cnnc3)c2)c2ncccc12	3	-0.53
C[C@@H](CNC(=O)N(CCc1ccccc1)Cc1cccnc1)N1CCOCC1	-3	0.64
C[C@@H](c1cccnc1)N(C)Cc1cccc(OC2CCCC2)c1	7	-1.07
O=C(c1c[nH]c2ccccc12)N1CC(Cn2nc(-c3cccnc3)ccc2=O)C1	-4	0.83
Cc1c(C#N)c(-c2ccc([C@H](C)N3CCOCC3)cc2)c(C)n1C	-8	1.49
CC1CN(Cc2cccc(NC3CCN4CCCC4C3)c2)CC(C)O1 (configuration not stated)	-12	2.09
Cc1n[nH]c(C2CCN(C(=O)c3cc(N4CCOCC4)no3)CC2)n1	-3	0.58
c1cc(-c2nnc3ccc(NCc4ccn(C5CCCC5)n4)nn23)ccn1	-2	0.32
